The list shows a part of the results.
Each molecule was assayed on Pseudomonas aeruginosa PA14 dppA1-A5 penta deletion mutant (assay: respiration area under curve with compound as sole nitrogen source, 24 h (OmniLog AUC (arbitrary units)); higher = more respiration / better utilisation as nitrogen source, active = 2000 or more; extreme values may be limits of the assay). Conditions: plate: PM6.
Experimental: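 Biolog Phenotype MicroArray plates PM6-PM8: each di/tripeptide is the sole nitrogen source. Tetrazolium reduction was read in the OmniLog for 24 h at 37°C and summarised as area under the respiration curve (arbitrary units). Values below 2000 count as no respiration.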

Respiration area under curve, inactive:
NCC(=O)N1CCC[C@H]1C(=O)O 0
N[C@@H](CC(=O)O)C(=O)N[C@@H](CC(=O)O)C(=O)O 130
C[C@@H](O)[C@H](NC(=O)CN)C(=O)O 150
N[C@@H](CCC(=O)O)C(=O)N[C@@H](Cc1ccc(O)cc1)C(=O)O 233
N[C@@H](CC(=O)O)C(=O)N[C@@H](CCC(=O)O)C(=O)O 11.9
CC(C)C[C@H](NC(=O)CN)C(=O)O 0
CC[C@H](C)[C@H](N)C(=O)N[C@@H](CCC(N)=O)C(=O)O 1530

Respiration area under curve, active:
CC[C@H](C)[C@H](NC(=O)[C@@H](N)CC(C)C)C(=O)O 5380
CC(C)C[C@H](NC(=O)[C@@H](N)CCCN=C(N)N)C(=O)O 9380
NC(N)=NCCC[C@H](N)C(=O)N[C@@H](Cc1c[nH]c2ccccc12)C(=O)O 9000
CC(C)[C@H](NC(=O)[C@@H](N)CC(N)=O)C(=O)O 5760
CC[C@H](C)[C@H](N)C(=O)N[C@@H](CCCN=C(N)N)C(=O)O 9180
C[C@H](N)C(=O)N[C@@H](CCC(=O)O)C(=O)O 4310
C[C@H](N)C(=O)N[C@@H](CO)C(=O)O 8800

Same assay, conditions: plate: PM7

Respiration area under curve, inactive:
N[C@@H](Cc1ccc(O)cc1)C(=O)N[C@@H](CCC(=O)O)C(=O)O 757
CSCC[C@H](N)C(=O)N[C@@H](Cc1ccccc1)C(=O)O 417
N[C@@H](Cc1c[nH]c2ccccc12)C(=O)N[C@@H](Cc1ccc(O)cc1)C(=O)O 746
O=C(O)CC(NC(=O)C1CCCN1)C(=O)O (stereo not given) 2
N[C@@H](Cc1c[nH]c2ccccc12)C(=O)N[C@@H](CC(=O)O)C(=O)O 78.9
CSCC[C@H](N)C(=O)N[C@@H](CCC(=O)O)C(=O)O 44.1
C[C@@H](O)[C@H](N)C(=O)NCC(=O)O 170

Respiration area under curve, active:
CC(C)C[C@H](NC(=O)[C@@H](N)Cc1c[nH]c2ccccc12)C(=O)O 4500
N[C@@H](Cc1ccccc1)C(=O)NCC(=O)O 2400
N[C@@H](Cc1ccc(O)cc1)C(=O)N[C@@H](Cc1ccccc1)C(=O)O 6080
CSCC[C@H](N)C(=O)N[C@H](C(=O)O)C(C)C 2020
CC[C@H](C)[C@H](NC(=O)[C@@H](N)Cc1ccccc1)C(=O)O 8280
C[C@H](NC(=O)[C@@H](N)Cc1ccc(O)cc1)C(=O)O 9760
N[C@@H](CO)C(=O)N[C@@H](Cc1ccc(O)cc1)C(=O)O 2440
C[C@@H](O)[C@H](N)C(=O)N[C@@H](CCCN=C(N)N)C(=O)O 15100

Same assay, conditions: plate: PM8

Respiration area under curve, active:
CC(C)[C@H](N)C(=O)N[C@@H](Cc1ccc(O)cc1)C(=O)N[C@H](C(=O)O)C(C)C 7060
C[C@H](N)C(=O)N[C@@H](C)C(=O)N[C@@H](C)C(=O)O 7240

Respiration area under curve, inactive:
NCC(=O)N[C@H](CO)C(=O)O 0
CC(C)[C@H](NC(=O)[C@@H](N)Cc1c[nH]c2ccccc12)C(=O)O 357
C[C@@H](O)[C@H](N)C(=O)N[C@@H](CO)C(=O)O 108
NC(CO)C(=O)NC(CCC(=O)O)C(=O)O (stereo not given) 0
N[C@@H](Cc1ccccc1)C(=O)N[C@@H](Cc1ccc(O)cc1)C(=O)O 1170
N[C@@H](Cc1ccccc1)C(=O)N[C@@H](CC(=O)O)C(=O)O 0
CC(C)C[C@@H](N)C(=O)NCC(=O)O 0.429
CC(C)[C@H](N)C(=O)N1CCC[C@H]1C(=O)O 13.7
CC(C)C[C@H](NC(=O)[C@@H](C)N)C(=O)O 0
